Measured values reported in patent US20100124555A1, “Compositions and Methods for Treating Pancreatic Tumors” (UNIVERSITE DE LA MEDITERRANEE, priority 2007, published 2010).

Tested on: SOJ-6 cells
Test: Annexin V / PI apoptosis assay
Type: cell-based, human
Conditions: antibodies 20 μg/ml, tunicamycin 25 or 50 μg/ml
Protocol: SOJ-6 cells (20.10^4 cells per well) were seeded onto 24 wells plates 72H before to start the experiment. Cells were incubated either with 20 μg/ml 16D10 IgM, or 20 μg/ml of a further recombinant 16D10 IgG1 antibody which contained the 16D10 variable regions linked fused to a human IgG1 constant region and human kappa light region for the heavy and light chains respectively, 25 μg/ml Tunicamycin or 50 μg/ml Tunicamycin. The AnnexinV/PI stainings were performed after 24H of culture using the AnnexinV-FITC Apoptosis Detection Kit I (BD Pharmingen) according to the manufacturer instructions. Stainings were acquired on a FACScan (Becton Dickinson, San Jose, Calif.) and results were analysed using FlowJo Software.

B1: IgG1 antibody 16D10: further recombinant 16D10 IgG1 antibody: 16D10 variable regions fused to human IgG1 constant region and human kappa light region (antibody)
heavy: QVQLQQSDAELVKPGASVKISCKASGYTFTDHAIHWVKQKPEQGLEWIGYISPGNDVIKFNEKFKGKATLTADKSSSTAYMQLNSLTSEDSAVYFCKRSEGGVFDYWGQGTTLTVSS[omitted - human IgG1 constant region]
light: NIMMTQSPSSLAVSAGEKVTMSCKSSQSVLYSSNQKNFLAWYQQKPGQSPKLLIYWASTRESGVPDRFTGSGSGTDFTLTISSVQAEDLAVYYCHQYLSSYTFGGGTKLEIKRTVAAPSVFIFPPSDEQLKSGTASVVCLLNNFYPREAKVQWKVDNALQSGNSQESVTEQDSKDSTYSLSSTLTLSKADYEKHKVYACEVTHQGLSSPVTKSFNR
- apoptosis by Annexin V and Annexin V/PI staining: induced significant levels of apoptosis
- apoptosis by Annexin V and Annexin V/PI staining (listed as chimeric recombinant 16D10 antibody): capable of inducing apoptosis of SOJ-6 cells
